Drawing on PubChem BioAssay (NCI), this text covers TGI and GI50 for 81 compounds.

Several values for one entry are separate records, joined by “and”; a condition that tells them apart may be missing. Identical values can stand only once.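 Assay format: 96-well plates, 48-hour exposure. Here, GI50 denotes the concentration required for 50% inhibition of growth. At the TGI there is no net growth.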

This assay deals with NCI-H322M lung. In words: NCI-60 cell line screen, 48 h.

On to `CC1=CC(=O)N(n2c(Cc3ccc(Cl)cc3)n[nH]c2=O)C1=O`, for which the TGI is > 100 µM.

For the compound `COc1cc(CNc2cnc3ccc(N)cc3n2)cc(OC)c1OC`, the TGI is > 100 µM.

`O=C1CC(CC(OCc2ccccc2)C(OCc2ccccc2)C(COCc2ccccc2)OCc2ccccc2)CC(=O)N1` (stereo unspecified): the GI50 was > 100 µM and 27.3 µM; the TGI was > 100 µM. With `Cc1sc2c(c1C)C(c1ccc(Cl)cc1)=N[C@@H](CC(=O)NCCCN1CCN(C)CC1)c1nnc(C)n1-2`, the GI50 is 3.35 µM and the TGI was > 100 µM. For `COC(=O)C(=O)C(/C(=N/N)C(=O)Nc1ccccc1C(N)=O)c1nc2ccc([N+](=O)[O-])cc2[nH]c1=O` (stereo unspecified), the TGI is > 100 µM. The same measure, in the same setting: the figure for `CCCCCCCCCCCCC(Br)C(C)=O` (stereo unspecified) is > 100 µM. For `CC/C=C\C[C@H](O)C/C=C1/C(=O)C=C[C@@H]1C/C=C\CCCCO`, the GI50 is 4.09 µM and the TGI came out at 15.4 µM. In the case of `COC(=O)Cn1c(=O)oc2nc(-c3ccccc3)cc(C(F)(F)F)c21`, the TGI is > 100 µM.

With `CC(=O)OCC1OC(n2ncc(=O)[nH]c2=O)C(OC(C)=O)C1OC(C)=O` (stereo unspecified), the TGI is > 100 µM. Still for that read-out and setting: the figure for `CN(C)c1ccc(/C=C(\NC(=O)c2ccccc2)C(=O)Nc2cccc(C(=O)NCCCO)c2)cc1` is > 100 µM; for `C/C(=C\C(=N\NC(=N)N)c1ccccc1)c1ccccc1` it is 2.25 µM. Still for that read-out and setting: the figure for `O=C1/C(=C/c2ccc(O)c(O)c2)CC/C1=C\c1ccc(O)c(O)c1` is > 81.4 µM. Turning to `O=C1c2c(Cl)c(Cl)c(Cl)c(Cl)c2C(=O)C2(Cl)CC=CCC12Cl` (stereo unspecified), the GI50 was 2.21 µM and the TGI stood at 4.72 µM. In the case of `O=C1[C@@H](O)[C@@H]2CCCC[C@@]23CCCN13`, the TGI was > 100 µM. Regarding `CN(C)CCS(=O)(=O)Nc1cc(-c2ccc3ncc(C#N)c(Nc4ccc(F)c(Cl)c4)c3c2)cnc1Cl`, the GI50 was 0.29 µM and the TGI came out at 0.975 µM.

Take `O=[N+]([O-])/C(Cl)=C/C(=C1/Nc2ccccc2O1)[N+](=O)[O-]`: the TGI worked out at 30.6 µM. On the same count and under the same terms, the figure for `CCCCCCCCCCOCCOCCOCCOCCCCC(O)CCCCCCCC1=C[C@H](C)OC1=O` (stereo partly specified) is 33.4 µM; for `COc1ccc2c(c1OC)C(=O)N/C2=C\c1c(CCN(C)C)cc2c(c1OC)OCO2` it is > 100 µM. On to `COc1cc(C2CC(=O)Nc3c2c(C)nn3-c2nc3ccccc3[nH]2)cc(OC)c1O` (stereo unspecified), for which the GI50 was 4.48 µM and the TGI was 38.9 µM. For the compound `CCOC(=O)N/N=C(\CC)OCC`, the TGI is > 100 µM. As to `Cc1ccccc1Nc1nc(NNC(=O)Cc2ccccc2)nc(NNC(=O)c2ccncc2)n1`, the TGI is > 10 µM.

For the compound `COc1cc(CCNC(=O)OC(C)(C)C)c2c(c1OC)SSSSS2`, the GI50 is 2.39 µM and the TGI amounted to 4.59 µM. As to `O=C(Nc1cccc(C(=O)NCCCO)c1)/C(=C/c1ccccc1)NC(=O)c1ccccc1`, the TGI is > 100 µM. Regarding `CCOC(=O)C12CC(C)=C(C)CC1CCCc1ccccc12` (stereo unspecified), the TGI is > 100 µM. Still for that read-out and setting: the figure for `CCOC(=O)c1sc2nc1CSc1sc(=S)sc1SCc1nc(sc1C(=O)OCC)-c1nc(c(C(=O)OCC)s1)CSc1sc(=S)sc1SCc1nc-2sc1C(=O)OCC` is > 10 µM; for `CC(C)c1ccc(/C=C/c2cc(C(=O)NNC(=O)NC3CCCCC3)nc(=S)[nH]2)cc1` it is > 100 µM. `CC(=O)N[C@@H](Cc1ccc(OP(=O)(O)O)cc1)C(=O)N[C@H]1CCC(=O)N2CCC[C@@H](C(=O)NCc3ccccc3)N2C1=O`: the GI50 is > 23.2 µM and the TGI was > 25 µM. As to `COC(=O)[C@@H](C)C[C@H](Cc1ccccc1)NC(=O)c1csc([C@@H](C[C@H](C(C)C)N(C)C(=O)[C@@H](NC(=O)[C@H]2CCCN2C)C2CC2)OC(C)=O)n1`, the GI50 was 0.00424 µM and 0.0025 µM; the TGI is > 25 µM. As to `O=[N+]([O-])c1oc2ccc3ccccc3c2c1CCO`, the TGI amounted to 11.5 µM. The same measure, in the same setting: the figure for `Cc1cc(=O)n2c3c(c4c(cc13)c(CN(C)C)cc(=O)n4C)OC2` is > 100 µM; for `CC1=C(C(=O)CC(=O)C(=O)Nc2ccc(C)c(C)c2)Sc2ccccc2N1` it is > 100 µM; for `CC(=O)Nc1cc2nc3n(c2cc1C)CCC3OC(C)=O` (stereo unspecified) it is > 100 µM. As for `Nc1ncn([C@H]2C[C@H](OP(=O)(O)OC[C@H]3O[C@@H](n4cnc5c(=O)[nH]c(N)nc54)C[C@@H]3O)[C@@H](CO)O2)c(=O)n1`, the GI50 is > 100 µM and the TGI is > 100 µM. As for `CN1C(=O)C2(c3ccccc31)C1CC3C(CO1)C1C2C3(CO)CN1C#N` (stereo unspecified), the TGI is > 100 µM.

For `Cc1[nH]nc2ncc(C(=O)N3CCC[C@H]3c3ccc(Cl)cc3)cc12`, the GI50 was > 100 µM and the TGI is > 100 µM. Consider `COC(=O)[C@]12CSC[C@H]1C[C@H](c1cccc3ccccc13)N2`, for which the TGI is > 100 µM. Same read-out and setting: the figure for `Cn1c(=O)ccc2c(=O)c3ccccc3oc21` is > 100 µM; for `O=C(O)c1c2c(cc3c(=O)cc(-c4ccccc4)oc13)CCCC2` it is > 100 µM. For the compound `O=C1CC(N2C(=O)/C(=C/C(Cl)=C\c3ccc([N+](=O)[O-])cc3)SC2=S)C(=O)N1c1ccc(O)cc1` (stereo unspecified), the GI50 was 2.34 µM and the TGI was found to be 6.67 µM. With `CC1=CC(=O)N(n2c(-c3ccccc3)n[nH]c2=O)C1=O`, the TGI is > 100 µM.

In the case of `S=C1CC(c2ccccc2)Sc2cc(Cl)ccc2N1` (stereo unspecified), the TGI was > 100 µM. For the compound `Cc1ccccc1C(C(=O)NC1CCCCC1)N(C(=O)CNc1ncccc1F)c1cccc(F)c1` (stereo unspecified), the GI50 is > 100 µM and the TGI was > 100 µM. Regarding `C/C=C\C(CC(=O)OC)CC(=O)N(CCC1CN(S(=O)(=O)C(F)(F)F)c2ccccc21)Cc1ccc(OC)cc1OC` (stereo unspecified), the TGI was > 100 µM. The same measure, in the same setting: the figure for `Cc1ccc(C(=O)NCCN(C)C)c2nc3ccccc3cc12` is > 100 µM; for `Cc1cn(Cc2cn(CC3OC(n4cc(C)c(=O)[nH]c4=O)CC3O)nn2)c(=O)[nH]c1=O` (stereo unspecified) it is > 100 µM; for `CCN(CCO)CCNc1ccc(C)c2sc3ccccc3c(=O)c12` it is 13.8 µM. Same read-out and setting: the figure for `NC(=O)CCC(NC(=O)c1c2ccccc2nc2ccccc12)C(=O)O` (stereo unspecified) is > 100 µM; for `CCOc1cccc(-c2cc(=O)c3cc4c(cc3[nH]2)OCO4)c1` it is > 100 µM. As to `CC[PH+](CC)CC.CC[PH+](CC)CC.[Au]`, the GI50 was 18.3 µM and the TGI was found to be 32.4 µM. In turn, `CCN(CC)Cc1cc(Nc2ccnc3ccc4nn(C)nc4c23)ccc1O` came in with a TGI of 48.2 µM. Consider `CCOC(=O)C(NC(=O)CC)(Nc1ccc(F)cc1F)C(F)(F)F` (stereo unspecified), for which the TGI is > 100 µM.

As to `COC(=O)C1[C@H](c2ccc3c(c2)OCO3)OC(=O)[C@]1(C(=O)OC)C(=O)c1ccc(OC)c(OC)c1` (stereo partly specified), the TGI is > 100 µM. As to `COc1cc2c(c(OC)c1OC)-c1c(c3ccc([N+](=O)[O-])cc3c(=O)n1CCCN)C2=O`, the GI50 was 9.57 µM and the TGI was determined as 17.6 µM.

For `COc1ccc(Cn2cc3c(c2-c2cc(OC)c(OC)c(OC)c2)CCc2c(CO)noc2-3)cc1`, the GI50 is 0.616 µM and the TGI worked out at 38.8 µM. Turning to `Cc1ccc(Sc2ccccc2N)cc1`, the TGI is > 100 µM. On the same count and under the same terms, the figure for `N=C(N)c1ccc(N=Nc2c(O)ccc3cc4c(N=Nc5ccc(C(=N)N)cc5)c(O)ccc4cc23)cc1` is > 100 µM. As for `CN(C)C=Nc1c(I)cc(I)c(CCC(=O)O)c1I`, the GI50 is > 100 µM and the TGI is > 100 µM. With `CCCCCCCCCCOC(=O)NCCC`, the TGI was > 100 µM. Still for that read-out and setting: the figure for `COc1cc(O)c2c(c1)C(=O)C1=C(C2=O)C(O)C[C@@](C)(O)C1` (stereo partly specified) is 5.58 µM.

In the case of `N#CC1=C(N)Oc2c(sc3c(Br)cccc23)C1c1ccc(Cl)cc1` (stereo unspecified), the GI50 is 1.03 µM and the TGI is 5.24 µM. For `Cc1cn(C2CCN(CC3COC(C)(C)O3)O2)c(=O)[nH]c1=O` (stereo unspecified), the TGI is > 100 µM.

With `COc1ccc(-c2nc3c(C(=O)NCCN(C)C)cccc3c3ccccc23)cc1`, the TGI stood at 23 µM. The same measure, in the same setting: the figure for `CC(C)C(Sc1nc(-c2ccccc2)c(-c2ccccc2)[nH]1)c1n[nH]c(=S)n1-c1ccccc1` (stereo unspecified) is > 100 µM.

Take `CCOC(=O)c1cc(NS(=O)(=O)c2ccc(C)cc2)cc(C(=O)OCC)c1`: the GI50 was > 100 µM and the TGI was > 100 µM.

With `C=CCOC(=O)Nc1cccn([C@H](CC(C)C)C(=O)NCCC(C)C)c1=O`, the GI50 is > 100 µM and the TGI was > 100 µM. With `CC(=O)NNc1nc(C)c(C(=O)/C=C/c2ccc(Cl)c(Cl)c2)s1`, the TGI was > 100 µM. `Cc1ccc(C(=O)Oc2ccc(/C=C3\CCC/C(=C\c4ccc(OC(=O)c5ccc(C)cc5)cc4)C3=O)cc2)cc1`: the TGI was > 100 µM. On the same count and under the same terms, the figure for `CCC12C=CCN3CCC4(c5cc(C(c6ccc(OC)cc6)C6Cc7ccccc7N6)c(OC)cc5N(C)C4C(O)(C(=O)OC)C1O)C32` (stereo unspecified) is > 100 µM. For the compound `Cc1cccc(Cl)c1NC(=O)c1cnc(Nc2cc(N3CCOCC3)cc(S(C)(=O)=O)c2)s1`, the GI50 is 0.465 µM and the TGI is > 7.93 µM. For `COc1ccc(/C=C2\CCC(CCN3CCOCC3)C2=O)cc1` (stereo unspecified), the TGI was > 100 µM.

Turning to `COc1ccc(-c2[nH]nc(N)c2-c2cc(OC)c(OC)c(OC)c2)cc1`, the GI50 was 0.0649 µM and the TGI is > 100 µM. Consider `Cc1cc(C)nc(NS(=O)(=O)c2ccc(NC(=O)NC(F)(F)F)cc2)n1`, for which the TGI was > 100 µM.

`CN(C)CCNC(=O)c1ccc2oc3cc4ccccc4c(=O)n3c2c1`: the GI50 was 2.02 µM and the TGI amounted to 9.23 µM.

As for `CCNCCNc1cc(-c2ccc(C(F)(F)F)cc2)c(C#N)c2nc3cc(Cl)c(Cl)cc3n12`, the GI50 was 1.58 µM and the TGI came out at 3.05 µM. `Cc1ccc(C(=O)Nc2ncn(C3CC(O)C(CO)O3)c(=O)n2)cc1` (stereo unspecified): the TGI is > 100 µM. In the case of `NC(N)=N/N=C/c1c(-c2cccnc2)nc2sc(Cl)cn12`, the GI50 is 11 µM and the TGI was found to be 23.4 µM.

Regarding `COP(=O)(OC)[C@H](O)[C@H]1C[C@@H]1c1ccccc1`, the TGI was > 100 µM.

For the compound `Cc1cccc(C)c1N=Nc1ccc(O)c(CN(C)C)c1`, the TGI is > 100 µM.

With `CC(=O)NC1COC(COC(=O)CCCCCCCCCCNC(=O)c2ccc([N+](=O)[O-])c3c(=O)c4ccccc4[nH]c23)C(O)C1OC(C)C(=O)NC(C(=O)NC(CCC(N)=O)C(=O)OCc1ccccc1)C(C)C` (stereo unspecified), the TGI was determined as 25 µM. Still for that read-out and setting: the figure for `COc1ccc(N=Cc2ccc(N(CCC#N)S(=O)(=O)c3ccccc3)cc2C)cc1` is > 100 µM; for `Cc1cc(S(=O)(=O)NC(=NCCc2ccccc2)NN)c(S)cc1Cl` it is 93 µM.
